Laboratory results as given in PubChem BioAssay AID1508624 (National Center for Advancing Translational Sciences (NCATS), 2021).
The whole screen tested about 48,000 compounds, of which about 120 (0.25%) were called active. Another 4% or so got no clear call; they are omitted. Calls follow the shape of the dose curve; as a rule, active = well fitted activation curve with a large enough effect; inconclusive = small, poorly fitted or top-dose-only effect, or another doubt; inactive = no such curve, though single readings can be large or run the other way. The list shows a part of the results.

assay: Primary qHTS for Identification of Small Molecule Activators of Huntingtin-Antisense Promoter Activity; conditions: HEK293 HTT-AS promoter firefly luciferase reporter, 24 h; series mostly up to 57.5 µM; activity change, positive = activation: at the top concentration; also: nearly all actives have a fitted effect of over 55% in size
Summary of the method: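 Luminescence was read after Dual-Glo reagent and a 10 min room-temperature incubation. Values were normalized to vehicle (0% activity) and zero RLU (-100% activity). Reporter HEK293 cells had been exposed to compounds (up to 57.5 uM final) for 24 h.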

Row | SMILES | activity change, positive = activation
1 | CCCN(CCC)C(=O)Cn1c(=O)n(-c2ccc(C)cc2)c(=O)c2ccc(C(=O)NCc3ccccc3Cl)cc21 | inactive: -13.7%
2 | CNC(=O)C1CCN(Cc2cc3ccccc3n2Cc2ccccc2C)CC1 | inactive: -17.4%
3 | Cc1ccc(-c2cn3c(n2)sc2cc(C(=O)NCc4cccs4)ccc23)cc1 | inactive: 4.27%
4 | CCCCNC(=O)Cn1c(=O)cc(C)c2c(C)nn(-c3ccc(CC)cc3)c21 | inactive: 6.38%
5 | CCC1CN(C(=O)N2CCC(C(=O)NCCc3ccc(C)cc3)CC2)c2ccccc2O1 (centres undefined) | inactive: -33%
6 | Cc1oc(-c2ccccc2)nc1CSc1nnc(C)n2c1cc1sccc12 | inactive: -16.7%
7 | CCOCCCNC(=O)CCC(=O)NNc1nc2ccccc2c2nc(-c3ccccc3)nn12 | inactive: -12.1%
8 | O=C(CCc1nnc2n(Cc3ccccc3Cl)c(=O)c3ccccc3n12)Nc1ccc(F)c(F)c1 | inactive: -2.38%
9 | O=C(NCc1cccc(Br)c1)C1CCN(C(=O)c2sccc2-n2cccc2)CC1 | inactive: -22.1%
10 | Cc1ccc(-n2nc(CO)c(C(=O)NCC(c3ccccc3)c3ccccc3)n2)cc1 | inactive: 2.39%
11 | COc1cccc(-n2cc(C(=O)Oc3cccc(C(F)(F)F)c3)c3ccccc3c2=O)c1 | inactive: -17.3%
12 | CC(=O)N1c2ccccc2CC1C(=O)N1CCN(c2cccc(Cl)c2)CC1 (centres undefined) | inactive: -12.8%
13 | CC[C@H](NC(=O)[C@H](C)NC)C(=O)N1C[C@@H](O)C[C@H]1Cc1c(-c2[nH]c3cc(F)ccc3c2C[C@H]2C[C@H](O)CN2C(=O)[C@H](CC)NC(=O)[C@H](C)NC)[nH]c2cc(F)ccc12 | inactive: -33.1%
14 | O=C(CC1C(=O)N(c2ccc(F)cc2)C(=O)N1Cc1ccc2c(c1)OCO2)Nc1ccc(F)cc1 (centres undefined) | inactive: -1.84%
15 | CCOc1ccc(OCC)c(NC(=O)C(NS(=O)(=O)c2ccc(Br)s2)c2ccccc2)c1 (centres undefined) | inactive: -25.9%
16 | COc1cccc(CNC(=O)CN2C(=O)CCCc3ccccc32)c1OC | inactive: -8.37%
17 | CCOC(=O)c1cnc2c(C)cccc2c1NCCc1ccc(OC)c(OC)c1 | inactive: -11.3%
18 | CCc1ccc(NC(=O)c2ccc3oc(=O)n(Cc4ccccc4)c3c2)cc1 | inactive: -36.4%
19 | Cc1ccc(C)c(CN2C(=O)c3ccccc3S(=O)(=O)c3ccc(C(=O)N4CCCC4)cc32)c1 | inactive: -24.9%
20 | CCN(c1ncnc2c1cnn2-c1cc(Cl)ccc1C)C1CCCCC1 | inactive: 0%

Row | SMILES | activity change, positive = activation
21 | CCN1C(=O)C(Cc2nc3ccccc3c(=O)n2-c2cccc(C)c2)c2ccccc21 (centres undefined) | inactive: -15.4%
22 | CC(C)Oc1ccc(C(=O)NCCc2csc(-c3cccc(F)c3)n2)cc1 | inactive: -19%
23 | Cc1ccccc1NC(=O)c1c(C)oc2ccc(O)c(CN(C)Cc3ccccc3)c12 | inactive: -29.1%
24 | Cc1ccc(-c2noc(-c3ccccc3OCC(=O)Nc3ccccc3[N+](=O)[O-])n2)cc1 | inactive: 8.82%
25 | O=C(Nc1ncc(Cc2ccc(F)cc2)s1)c1ccc2c(c1)CC(c1ccccc1)OC2=O (centres undefined) | inactive: -8.47%
26 | CCCCCn1c(CCCNC(=O)c2ccccc2)nc2ccccc21 | inactive: -24.9%
27 | CCCC(=O)N1c2nc(-c3ccco3)nn2C2(CCCCC2)[C@@H]2CCCC[C@@H]21 | inactive: -23.5%
28 | COc1cccc(NC(=O)Cn2c(=O)n(-c3ccc(C)cc3)c(=O)c3ccccc32)c1 | inactive: -34.3%
29 | Cc1nn(C)c2c1c(C(F)(F)F)cc(=O)n2CC(=O)Nc1ccc(F)cc1F | inactive: -29.4%
30 | Cc1ccccc1NC(=O)CSc1nccn1C | inactive: -6.6%
31 | Cc1nnc(N2CCC(C(=O)NC3CCC(C)CC3)CC2)c2nn(-c3ccc(Cl)cc3)c(C)c12 (centres undefined) | inactive: -11.7%
32 | Cc1cccc(N(C)C(=O)Cn2cnc3nc4c(cc3c2=O)CCCC4)c1 | inactive: -8.5%
33 | CCCSc1nnc(NC(=O)c2cc(=O)c3ccccc3o2)s1 | inactive: 16.7%
34 | COc1ccc(S(=O)(=O)N(CCc2ccccc2)CC(=O)Nc2cc(Cl)ccc2C)cc1 | inactive: -9.79%
35 | CCOC(=O)N1CCc2c(sc3c2c(=O)n(CCc2ccccc2)c(=O)n3CC(=O)Nc2ccccc2C)C1 | inactive: -8.88%
36 | COC(=O)c1cc2sccc2n1Cc1c(C)cc(C)cc1C | inactive: 12%
37 | COc1ccc(NC(=O)C2CCCN(S(=O)(=O)c3ccc4[nH]c(=O)ccc4c3)C2)cc1Cl (centres undefined) | inactive: -26.6%
38 | NC(=O)c1c(NC(=O)CS(=O)(=O)c2ccc(Cl)cc2)sc2c1CCCC2 | inactive: -27.1%
39 | O=C(c1cccc(Cl)c1)N(Cc1cccc(F)c1)C1CCS(=O)(=O)C1 (centres undefined) | inactive: -5.6%
40 | CCCN1CCN(CCCNC(=O)c2cc3c(s2)-c2c(C)cccc2OC3)CC1 | inactive: -2.5%

Row | SMILES | activity change, positive = activation
41 | Cc1ccc(-c2nn(CCC(=O)Nc3ccc(OC(F)(F)F)cc3)c(=O)c3ccccc23)cc1 | inactive: -7.75%
42 | Cc1ccc(NC(=O)C2CCN(C(=O)c3sc4nc[nH]c(=O)c4c3C)CC2)cc1F | inactive: -5.43%
43 | COc1ccccc1C(=O)Nc1ccccc1OCc1cc(=O)n2cc(C)sc2n1 | inactive: -0.0648%
44 | Cc1ccc(C)c(OCCCC(C)(C)C(=O)O)c1 | inactive: -1.74%
45 | CCOc1cccc(C(=O)N(Cc2ccc(C(C)C)cc2)C2CCS(=O)(=O)C2)c1 (centres undefined) | inactive: -12.4%
46 | CCc1cccc(C)c1NC(=O)c1cc(CN2CCCC2)on1 | inactive: -10.9%
47 | CC(C)NC(=O)C1CCCN(S(=O)(=O)c2ccc3c(ccn3C)c2)C1 (centres undefined) | inactive: -5.68%
48 | COCCn1c(C)cc(O)c(C(c2cccc(F)c2)N2CCN(c3ccccc3)CC2)c1=O (centres undefined) | inactive: 3.03%
49 | COc1ccc(N(CC(=O)N2CCN(c3cccc(Cl)c3)CC2)S(=O)(=O)c2c(C)noc2C)cc1 | inactive: -37.7%
50 | CCOc1ccc(C(=O)N2CC(=O)Nc3ccc(F)cc3C2c2ccc(F)cc2)cc1 (centres undefined) | inactive: -17.8%
51 | COc1cc(C(=O)N2CCCCCCC2)cc(OC)c1OC | inactive: -5.35%
52 | COc1ccc(-c2oc3ncn4nc(COc5ccc(Cl)cc5)nc4c3c2-c2ccc(OC)cc2)cc1 | inactive: 6.89% [at 11.5 µM, percent change from vehicle, -100% = no light]
53 | CCc1nnc2c(Nc3cc(OC)c(Cl)cc3OC)nc3ccccc3n12 | inactive: -2.55%
54 | COc1cc(C=CC(=O)CC(=O)C=Cc2ccc(O)c(OC)c2)ccc1O | inactive: -56.4% [at 116 µM, percent change from vehicle, -100% = no light]
55 | O=C(Nc1ccc2oc(-c3cccc4c(Br)cccc34)nc2c1)c1cccc(Cl)c1 | inactive: 10.9%
56 | Cc1cc(Cl)ccc1NC(=O)C1CCCN(c2nnc(C)c3c(C)n(-c4ccccc4)nc23)C1 (centres undefined) | inactive: -6.92%
57 | Cc1cc(C)c(NC(=O)C(C)n2nc(C)c3sc4ccccc4c3c2=O)c(C)c1 (centres undefined) | inactive: -14.6%
58 | O=C(O)C(=O)Nc1cccc(-c2nn[nH]n2)c1 | inactive: 1.94%
59 | COc1cccc(N2CC(NC(=O)c3cccs3)CC2=O)c1 (centres undefined) | inactive: -13.9%
